Test results reported in the GPR68 mutational scans of Howard et al. (2025).
Scores whose standard error is large were omitted. The source holds two more conditions with little spread; they are left out. In variant names, del marks residues removed and ins residues inserted between the two positions. For some of these results: The concentration of ogerin is not given here.

B1: GPR68, Q15743 (parent)
chain: MGNITADNSSMSCTIDHTIHQTLAPVVYVTVLVVGFPANCLSLYFGYLQIKARNELGVYLCNLTVADLFYICSLPFWLQYVLQHDNWSHGDLSCQVCGILLYENIYISVGFLCCISVDRYLAVAHPFRFHQFRTLKAAVGVSVVIWAKELLTSIYFLMHEEVIEDENQHRVCFEHYPIQAWQRAINYYRFLVGFLFPICLLLASYQGILRAVRRSHGTQKSRKDQIQRLVLSTVVIFLACFLPYHVLLLVRSVWEASCDFAKGVFNAYHFSLLLTSFNCVADPVLYCFVSETTHRDLARLRGACLAFLTCSRTGRAREAYPLGAPEASGKSGAQGEEPELLTKLHPAFQTPNSPGSGGFPTGRLA

Legend:
[1] = variants of: B1; experiment: cAMP reporter score (Enrich2 score, wild type = 0); higher = more signal; HEK293T, FACS bins
[2] = variants of: B1; experiment: surface expression score (Enrich2 score, wild type = 0); higher = more signal; HEK293T, FACS bins

MGNITADNSSMSCTIDHTIHQTLAPVVYVTVLVVGFPANCLSLYFGYLQIKARNELGVYLCNLTVADLFYICSVPFWLQYVLQHDNWSHGDLSCQVCGILLYENIYISVGFLCCISVDRYLAVAHPFRFHQFRTLKAAVGVSVVIWAKELLTSIYFLMHEEVIEDENQHRVCFEHYPIQAWQRAINYYRFLVGFLFPICLLLASYQGILRAVRRSHGTQKSRKDQIQRLVLSTVVIFLACFLPYHVLLLVRSVWEASCDFAKGVFNAYHFSLLLTSFNCVADPVLYCFVSETTHRDLARLRGACLAFLTCSRTGRAREAYPLGAPEASGKSGAQGEEPELLTKLHPAFQTPNSPGSGGFPTGRLA [L74V]
cAMP reporter score ([1]; pH 5.5): -0.14 | cAMP reporter score ([1]; pH 6): -1.62 | cAMP reporter score ([1]; pH 6, modulator: ogerin): -0.685 | cAMP reporter score ([1]; pH 6.5, modulator: ogerin): -0.746 | surface expression score [2]: -0.433

MGNITADNSSMSCTIDHTIHQTLAPVVYVTVLVVGFPANCLSLYFGYLQIKARNELGVYLCNLTVADLFYICSWPFWLQYVLQHDNWSHGDLSCQVCGILLYENIYISVGFLCCISVDRYLAVAHPFRFHQFRTLKAAVGVSVVIWAKELLTSIYFLMHEEVIEDENQHRVCFEHYPIQAWQRAINYYRFLVGFLFPICLLLASYQGILRAVRRSHGTQKSRKDQIQRLVLSTVVIFLACFLPYHVLLLVRSVWEASCDFAKGVFNAYHFSLLLTSFNCVADPVLYCFVSETTHRDLARLRGACLAFLTCSRTGRAREAYPLGAPEASGKSGAQGEEPELLTKLHPAFQTPNSPGSGGFPTGRLA [L74W]
cAMP reporter score ([1]; pH 5.5): -1.94 | cAMP reporter score ([1]; pH 6): -1.51 | cAMP reporter score ([1]; pH 6, modulator: ogerin): -1.55 | cAMP reporter score ([1]; pH 6.5, modulator: ogerin): -1.2 | surface expression score [2]: -2.62
